{"source": "the supplement of paper PMC4166925", "note": "± gives the standard deviation of the averaged measurements. The full ranking holds about 33,000 sequences; the median of “E-score (dimensionless, -0.5 to 0.5)” is about -0.046, and the highest 2% start at about 0.36. Some of the results follow.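 Also: protein at 200 nM in PBS on universal double-stranded arrays.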", "data": [{"test_system": "T1, SpTbr T-box DNA-binding domain (GST fusion)", "T1 sequence": "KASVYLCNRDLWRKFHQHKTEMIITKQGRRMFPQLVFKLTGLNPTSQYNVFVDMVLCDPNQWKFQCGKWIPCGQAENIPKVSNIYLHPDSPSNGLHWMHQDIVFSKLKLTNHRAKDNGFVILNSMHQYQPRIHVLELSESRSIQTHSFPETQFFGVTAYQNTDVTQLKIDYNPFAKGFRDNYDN", "assay": "PBM E-score of 8-mer (E-score (dimensionless, -0.5 to 0.5)); Tbr is Tbrain of the sea star Patiria miniata (Pm) or the sea urchin Strongylocentrotus purpuratus (Sp); higher = stronger binding preference; most listed sequences are background and not binding sites", "conditions": "the construct has about 5 more residues each side", "description": "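Universal protein-binding microarray (Agilent AMADID 016060, 60-bp probes with a 35-bp variable region) incubated with 200 nM GST-fused Strongylocentrotus purpuratus Tbr T-box DNA-binding domain (residues 362-554) in PBS pH 7.5. Scored for every ungapped 8-mer (given with its reverse complement) as E-score (range -0.5 to 0.5; >0.45 counts as bound) and Z-score of median probe intensity. Two replicate arrays (datasets 1 and 2).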", "values": [{"sequence": "GCGTACTA", "PBM E-score of 8-mer": "-0.354 ± 0.026"}, {"sequence": "ATGAGCAA", "PBM E-score of 8-mer": "-0.127 ± 0.037"}, {"sequence": "AAGACGAT", "PBM E-score of 8-mer": "-0.0524 ± 0.029"}, {"sequence": "AGCGCGCC", "PBM E-score of 8-mer": "0.0478 ± 0.066"}, {"sequence": "AATCGATG", "PBM E-score of 8-mer": "-0.0812 ± 0.0092"}, {"sequence": "AAAGGTAC", "PBM E-score of 8-mer": "-0.0923 ± 0.05"}, {"sequence": "TCCCCCGA", "PBM E-score of 8-mer": "-0.133 ± 0.033"}, {"sequence": "CATGTCAC", "PBM E-score of 8-mer": "0.253 ± 0.025"}, {"sequence": "ATACTGAG", "PBM E-score of 8-mer": "-0.115 ± 0.039"}, {"sequence": "ATGCGAAG", "PBM E-score of 8-mer": "0.1525 ± 0.0015"}, {"sequence": "CCAAAATA", "PBM E-score of 8-mer": "-0.241 ± 0.017"}, {"sequence": "AGGTTGCA", "PBM E-score of 8-mer": "0.134 ± 0.019"}, {"sequence": "ATCCGAGG", "PBM E-score of 8-mer": "-0.1176 ± 0.0009"}, {"sequence": "GATGGTTA", "PBM E-score of 8-mer": "-0.0918 ± 0.008"}, {"sequence": "CAGACAAG", "PBM E-score of 8-mer": "-0.134 ± 0.015"}, {"sequence": "AAATCGAA", "PBM E-score of 8-mer": "0.0241 ± 0.066"}, {"sequence": "CAGGCCAG", "PBM E-score of 8-mer": "-0.257 ± 0.02"}, {"sequence": "CCAGGAGG", "PBM E-score of 8-mer": "-0.0654 ± 0.055"}, {"sequence": "CAACAGAA", "PBM E-score of 8-mer": "-0.0866 ± 0.099"}, {"sequence": "ATTAGAAG", "PBM E-score of 8-mer": "-0.13 ± 0.0082"}, {"sequence": "GGGGGAAA", "PBM E-score of 8-mer": "-0.205 ± 0.097"}, {"sequence": "CTAAATGC", "PBM E-score of 8-mer": "0.0157 ± 0.022"}, {"sequence": "AAAGGGAA", "PBM E-score of 8-mer": "-0.252 ± 0.016"}, {"sequence": "AACGAATG", "PBM E-score of 8-mer": "0.0939 ± 0.036"}, {"sequence": "CAGTATAC", "PBM E-score of 8-mer": "-0.121 ± 0.049"}, {"sequence": "CAAATACG", "PBM E-score of 8-mer": "-0.087 ± 0.022"}, {"sequence": "CGGGGTTC", "PBM E-score of 8-mer": "-0.0775 ± 0.057"}, {"sequence": "CAAAGAGC", "PBM E-score of 8-mer": "-0.0512 ± 0.053"}, {"sequence": "GGAGCCCC", "PBM E-score of 8-mer": "-0.206 ± 0.022"}, {"sequence": "CTTTTCAA", "PBM E-score of 8-mer": "-0.0414 ± 0.11"}, {"sequence": "ATTCAGCA", "PBM E-score of 8-mer": "-0.107 ± 0.013"}, {"sequence": "CGCCGAGC", "PBM E-score of 8-mer": "0.132 ± 0.025"}, {"sequence": "CCTTGTGC", "PBM E-score of 8-mer": "-0.0284 ± 0.0089"}, {"sequence": "TGCCCCAA", "PBM E-score of 8-mer": "-0.137 ± 0.02"}, {"sequence": "CGTAGACA", "PBM E-score of 8-mer": "0.0296 ± 0.012"}, {"sequence": "GAGGTTAC", "PBM E-score of 8-mer": "0.00103 ± 0.04"}, {"sequence": "GAAAATAC", "PBM E-score of 8-mer": "0.148 ± 0.053"}, {"sequence": "AAATCATG", "PBM E-score of 8-mer": "-0.0529 ± 0.011"}, {"sequence": "CCGTAAAG", "PBM E-score of 8-mer": "-0.0479 ± 0.033"}, {"sequence": "GGCGCCCA", "PBM E-score of 8-mer": "0.164 ± 0.077"}, {"sequence": "CTGGTGGA", "PBM E-score of 8-mer": "-0.174 ± 0.014"}, {"sequence": "ATAACGGA", "PBM E-score of 8-mer": "-0.197 ± 0.07"}, {"sequence": "AGGCTTAT", "PBM E-score of 8-mer": "-0.0619 ± 0.046"}, {"sequence": "ATAGCCTA", "PBM E-score of 8-mer": "-0.17 ± 0.033"}, {"sequence": "CGTGCAAC", "PBM E-score of 8-mer": "-0.0122 ± 0.11"}, {"sequence": "GTCTTAGA", "PBM E-score of 8-mer": "-0.195 ± 0.054"}, {"sequence": "AATACAGG", "PBM E-score of 8-mer": "-0.138 ± 0.0047"}, {"sequence": "GCTGCTAA", "PBM E-score of 8-mer": "0.11 ± 0.006"}, {"sequence": "AACAGATC", "PBM E-score of 8-mer": "0.137 ± 0.015"}, {"sequence": "GTTGGCTA", "PBM E-score of 8-mer": "-0.00618 ± 0.0014"}, {"sequence": "ACGCGCCC", "PBM E-score of 8-mer": "0.0742 ± 0.031"}, {"sequence": "GGGTTACC", "PBM E-score of 8-mer": "-0.148 ± 0.034"}, {"sequence": "CCATTATC", "PBM E-score of 8-mer": "-0.129 ± 0.12"}, {"sequence": "CCAGTCCG", "PBM E-score of 8-mer": "-0.15 ± 0.011"}, {"sequence": "TAATCAGA", "PBM E-score of 8-mer": "-0.122 ± 0.018"}, {"sequence": "CATTTCAC", "PBM E-score of 8-mer": "0.209 ± 0.045"}, {"sequence": "CTCCGCAC", "PBM E-score of 8-mer": "0.0941 ± 0.033"}, {"sequence": "GCCCTCAC", "PBM E-score of 8-mer": "0.205 ± 0.042"}, {"sequence": "CATCTGCC", "PBM E-score of 8-mer": "-0.186 ± 0.084"}, {"sequence": "CCTGGGGC", "PBM E-score of 8-mer": "-0.184 ± 0.006"}, {"sequence": "AACTGCTC", "PBM E-score of 8-mer": "0.00139 ± 0.031"}, {"sequence": "CGCTCTCC", "PBM E-score of 8-mer": "-0.0984 ± 0.027"}, {"sequence": "ACATGAAT", "PBM E-score of 8-mer": "0.128 ± 0.076"}, {"sequence": "CCCCTCCA", "PBM E-score of 8-mer": "0.0101 ± 0.067"}, {"sequence": "AGATTCCC", "PBM E-score of 8-mer": "0.0028 ± 0.016"}, {"sequence": "ACGATGGG", "PBM E-score of 8-mer": "-0.196 ± 0.062"}, {"sequence": "CTATAACA", "PBM E-score of 8-mer": "0.226 ± 0.025"}, {"sequence": "ATACGCGG", "PBM E-score of 8-mer": "-0.0745 ± 0.021"}, {"sequence": "AGGGACTG", "PBM E-score of 8-mer": "-0.214 ± 0.048"}, {"sequence": "ACGATTAG", "PBM E-score of 8-mer": "-0.0372 ± 0.04"}, {"sequence": "GTGTTTAA", "PBM E-score of 8-mer": "0.211 ± 0.079"}, {"sequence": "GCAAAAGA", "PBM E-score of 8-mer": "-0.133 ± 0.038"}, {"sequence": "ATAGCCCG", "PBM E-score of 8-mer": "-0.238 ± 0.021"}, {"sequence": "CTAACGAA", "PBM E-score of 8-mer": "0.162 ± 0.044"}, {"sequence": "GGGTGAAC", "PBM E-score of 8-mer": "-0.0752 ± 0.084"}, {"sequence": "CTGTTCGA", "PBM E-score of 8-mer": "0.124 ± 0.0058"}, {"sequence": "AAGTGATT", "PBM E-score of 8-mer": "0.0911 ± 0.026"}, {"sequence": "ATTCCTCC", "PBM E-score of 8-mer": "-0.207 ± 0.057"}, {"sequence": "CTGTTGCC", "PBM E-score of 8-mer": "0.00709 ± 0.025"}, {"sequence": "GACTTTTA", "PBM E-score of 8-mer": "-0.207 ± 0.076"}, {"sequence": "ATAGACCG", "PBM E-score of 8-mer": "-0.285 ± 0.076"}, {"sequence": "CTTCGCTC", "PBM E-score of 8-mer": "-0.00285 ± 0.036"}, {"sequence": "CTGCCGTC", "PBM E-score of 8-mer": "0.0984 ± 0.037"}, {"sequence": "GAAATCCA", "PBM E-score of 8-mer": "-0.092 ± 0.023"}, {"sequence": "GGTTAATA", "PBM E-score of 8-mer": "-0.0399 ± 0.046"}, {"sequence": "CAGCTGGG", "PBM E-score of 8-mer": "-0.0941 ± 0.13"}]}]}
